{
  "source": "PubChem BioAssay AID1460",
  "about": "(National Center for Advancing Translational Sciences (NCATS), 2008)",
  "note": "The campaign covered roughly 270,000 compounds. About 5,800 (2.1%) were called active. The shares of active, inactive and inconclusive entries below differ from those in the screen. Calls follow the shape of the dose curve; as a rule, active = well fitted inhibition curve with a large enough effect; inconclusive = small, poorly fitted or top-dose-only effect; inactive = flat fitted curve, though single readings scatter. Potencies of inconclusive entries are doubtful fits and often do not repeat. % is scaled to controls: 0 for no effect and ±100 for the full control effect; potency is read from the fitted curve at half-maximal effect; tags tell the direction and shape of the fitted curve.",
  "data": [
    {"molecular_target": "Microtubule-associated protein tau (Homo sapiens) (UniProt P10636)", "sequence (P10636 whole entry, looked up, the tested form may be a part)": "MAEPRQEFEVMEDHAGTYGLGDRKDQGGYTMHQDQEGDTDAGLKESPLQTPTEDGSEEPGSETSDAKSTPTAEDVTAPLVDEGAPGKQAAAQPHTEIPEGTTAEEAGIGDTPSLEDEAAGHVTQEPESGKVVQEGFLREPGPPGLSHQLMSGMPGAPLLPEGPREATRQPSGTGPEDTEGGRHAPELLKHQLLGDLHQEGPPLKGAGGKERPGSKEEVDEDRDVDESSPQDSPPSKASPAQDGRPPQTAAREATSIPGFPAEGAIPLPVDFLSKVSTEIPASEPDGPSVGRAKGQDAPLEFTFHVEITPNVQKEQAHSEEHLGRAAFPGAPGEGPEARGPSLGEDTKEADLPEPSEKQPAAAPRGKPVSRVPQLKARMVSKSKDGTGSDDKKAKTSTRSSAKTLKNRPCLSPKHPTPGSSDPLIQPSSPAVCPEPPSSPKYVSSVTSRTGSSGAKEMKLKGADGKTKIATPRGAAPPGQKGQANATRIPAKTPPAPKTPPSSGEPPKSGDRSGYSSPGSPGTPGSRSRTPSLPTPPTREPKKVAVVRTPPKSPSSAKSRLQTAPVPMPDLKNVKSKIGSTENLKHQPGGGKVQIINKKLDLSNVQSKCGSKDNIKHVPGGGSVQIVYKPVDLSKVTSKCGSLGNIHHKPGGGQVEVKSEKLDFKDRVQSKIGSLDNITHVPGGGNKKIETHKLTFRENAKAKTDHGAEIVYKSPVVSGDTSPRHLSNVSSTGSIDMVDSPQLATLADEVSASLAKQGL", "assay": "qHTS for Inhibitors of Tau Fibril Formation, Thioflavin T Binding; also: nearly all actives have a fitted effect of over 55% in size", "conditions": "recombinant tau K18 P301L (four-repeat tau fragment), heparin-induced fibrillization, ThT fluorescence; series mostly up to 57.4 µM", "how_it_was_run": "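Recombinant human tau K18 fragment […] carrying P301L, 15 uM unlabeled plus 0.24 uM Alexa 594-labeled, was fibrillized with 20 uM heparin in 100 mM sodium acetate pH 7 for 6 hr at 37 C; 30 uM ThT fluorescence read after 1 hr.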", "values": [
      {"compound": "O=C(COCc1cc(-c2cccs2)on1)N1CCN(c2ccccc2)CC1", "Potency": "inconclusive: 10 µM [inhibitor, partial curve]"},
      {"compound": "Cc1cccc(CNC(=O)c2ccc(N3Cc4ccccc4Oc4ncccc43)s2)c1", "Potency": "inactive"},
      {"compound": "COc1nccnc1NS(=O)(=O)c1ccc(NC(=S)NC(=O)/C=C/c2ccccc2)cc1", "Potency": "inconclusive: 11.2 µM [inhibitor, partial curve, poor fit]"},
      {"compound": "CS(=O)(=O)N1CCc2cc(C(=O)N3CCCCC3)ccc21", "Potency": "inactive"},
      {"compound": "CCC(C(=O)NCc1cc(OC)ccc1OC)n1nc(C)c2sc3ccccc3c2c1=O", "note": "(stereo not drawn)", "Potency": "inactive"},
      {"compound": "C#CCSc1ncc(-c2ccccc2)cn1", "Potency": "inconclusive: 12.6 µM [inhibitor, partial curve, poor fit]"},
      {"compound": "COc1ccc(N(CCCN2C(=O)c3cccc4cccc(c34)C2=O)C(=O)c2cccc(OC)c2)cc1", "Potency": "inactive"},
      {"compound": "Cc1nc2cc(NC(=O)Nc3ccc(N4CCOCC4)cc3)ccc2n1C", "Potency": "inconclusive: 10 µM [inhibitor, partial curve]"},
      {"compound": "COc1ccc(Cl)cc1NC(=S)NCCN1CCOCC1", "Potency": "inactive"},
      {"compound": "Cc1ccc(-n2cc(-c3ccccc3)c3c(=O)[nH]cnc32)cc1", "Potency": "inconclusive: 14.1 µM [inhibitor, single point]"},
      {"compound": "Brc1ccc(N/N=C(/N=Nc2nn[nH]n2)c2ccccc2)cc1", "Potency": "active: 4.47 µM"},
      {"compound": "CC(=O)OC[C@H]1O[C@@H](Sc2cccc3cccnc23)[C@H](OC(C)=O)[C@@H](OC(C)=O)[C@H]1OC(C)=O", "Potency": "inconclusive: 2.82 µM [inhibitor, partial curve, poor fit]"},
      {"compound": "CCC(=O)c1ccc(N2CCCC2)c(F)c1", "Potency": "inconclusive: 17.8 µM [inhibitor, partial curve]"},
      {"compound": "O=S(=O)(c1cccc(-c2nnco2)c1)N1CCOCC1", "Potency": "inactive"},
      {"compound": "N#Cc1c(N)nc2c3c(sc(=N)c2c1N)NC(=O)CC3c1c(F)cccc1Cl", "note": "(stereo not drawn)", "Potency": "inconclusive: 12.6 µM [inhibitor, partial curve]"},
      {"compound": "COC(=O)c1ccc(C2Nc3c(C)cccc3-c3cc(C)nn32)cc1", "note": "(stereo not drawn)", "Potency": "inactive"},
      {"compound": "O=C(CCn1c(=O)c2cccn2c2cccnc21)N1CCN(c2cccc(C(F)(F)F)c2)CC1", "Potency": "inconclusive: 17.8 µM [inhibitor, partial curve]"},
      {"compound": "CCN(CC(=O)Nc1cc(Cl)ccc1OC)CC(=O)NC1CCS(=O)(=O)C1", "note": "(stereo not drawn)", "Potency": "inactive"},
      {"compound": "CCc1cc(SC#N)cc(CC)c1NC(=O)CCl", "Potency": "active: 3.55 µM"},
      {"compound": "Cc1cccc(CS(=O)(=O)c2ncc(Cl)c(C(=O)Nc3nnc(C(C)C)s3)n2)c1", "Potency": "inconclusive: 3.55 µM [inhibitor, full curve]"},
      {"compound": "Cc1cccc(C)c1OCCOC(=O)c1n[nH]c2ccccc12", "Potency": "inconclusive: 10 µM [inhibitor, partial curve]"},
      {"compound": "N#CC1=C(N)Oc2n[nH]c(-c3cccnc3)c2C1c1cc(F)ccc1F", "note": "(stereo not drawn)", "Potency": "inconclusive: 7.94 µM [inhibitor, full curve, poor fit]"},
      {"compound": "COc1ccc(NC2CCN(C3CC(=O)N(c4ccc(F)c(Cl)c4)C3=O)CC2)cc1", "note": "(stereo not drawn)", "Potency": "inconclusive: 25.1 µM [inhibitor, partial curve, poor fit]"},
      {"compound": "CCOc1ccc(NC(=O)Nc2cc(C)ccc2OC)cc1", "Potency": "inconclusive: 15.8 µM [inhibitor, partial curve]"},
      {"compound": "C(=N\\NC1=Nc2cccc3cccc1c23)/c1ccccn1", "Potency": "active: 2.82 µM"},
      {"compound": "Cc1ccc2[nH]c(=O)c3cc(C(=O)N4CCN(C(=O)c5ccco5)CC4)sc3c2c1", "Potency": "inconclusive: 1.58 µM [inhibitor, full curve]"},
      {"compound": "COc1ccc(OCC(=O)NC(=S)NNC(=O)COc2ccc(Br)cc2Cl)cc1", "Potency": "inconclusive: 12.6 µM [inhibitor, single point]"},
      {"compound": "Cc1nnc(SCc2nc3ccccc3[nH]2)s1", "Potency": "inactive"},
      {"compound": "Cc1ccc(-c2n[nH]c(=S)n2/N=C/c2cccn2C)cc1", "Potency": "inactive"},
      {"compound": "O=C(COc1ccccc1Cl)Nc1ccc(-c2nc3ccccc3s2)cc1", "Potency": "inconclusive: 0.708 µM [inhibitor, full curve]"},
      {"compound": "Cc1ccc(C(=O)N/C(=C\\c2cccc([N+](=O)[O-])c2)C(=O)OCN2C(=O)c3ccccc3C2=O)cc1", "Potency": "inconclusive: 28.2 µM [inhibitor, partial curve]"},
      {"compound": "Nc1ccc2c(c1)Oc1ccccc1C=C2", "Potency": "inconclusive: 17.8 µM [inhibitor, single point]"},
      {"compound": "O=C(Nc1ccc(N2CCCCC2)cc1)c1ccccn1", "Potency": "inconclusive: 11.2 µM [inhibitor, partial curve]"},
      {"compound": "COc1ccc(C2=CC(c3cc(Br)ccc3F)n3c(nc4ccccc43)N2)cc1", "note": "(stereo not drawn)", "Potency": "inconclusive: 31.6 µM [inhibitor, single point]"},
      {"compound": "COC(=O)[C@@H](NC(=O)N1CCc2nc(-c3ccc(OC)cc3C)c3c(c2C1)CO[C@@H](c1ccccc1)C3)C(C)C", "activity, negative = inhibition": "inactive: -4.49% [at 11.5 µM]"},
      {"compound": "C=C1C(=O)O[C@@H]2[C@H]1[C@@H](OC(=O)/C(C)=C/C)C/C(C)=C\\C(=O)/C=C(\\C)[C@@H]2O", "Potency": "inconclusive: 3.16 µM [inhibitor, full curve]"},
      {"compound": "O=C(Oc1cccnc1)c1cc2ccccc2oc1=O", "Potency": "inconclusive: 14.1 µM [inhibitor, partial curve]"},
      {"compound": "NC(=O)NC(=O)CC1S/C(=N/N=C2\\CSC(=O)N2)NC1=O", "note": "(stereo not drawn)", "Potency": "inconclusive: 11.2 µM [inhibitor, partial curve]"},
      {"compound": "CC(NCc1ccc(F)cc1)C(=O)NC1CCCCC1", "note": "(stereo not drawn)", "Potency": "active: 31.6 µM"},
      {"compound": "COC(=O)c1ccc(C(NC(=O)OCc2ccccc2)/C(=C/[C@@H](C)C(=O)NCCc2c[nH]c3ccccc23)c2cccnc2)cc1", "note": "(stereo partly drawn)", "Potency": "inconclusive: 31.6 µM [inhibitor, single point]"},
      {"compound": "COc1ccccc1C(=O)Oc1cc(N)n(S(=O)(=O)c2ccc(C)cc2)n1", "Potency": "inconclusive: 17.8 µM [inhibitor, partial curve]"},
      {"compound": "COc1ccc(NC(=O)C2=C(C)C(=O)OC23CCC(C)CC3)c(OC)c1", "note": "(stereo not drawn)", "Potency": "inconclusive: 17.8 µM [inhibitor, single point]"},
      {"compound": "C/C(=N\\OC(=O)c1ccc(C)cc1)c1c(C)nc2cc(C)ccn12", "Potency": "inconclusive: 22.4 µM [inhibitor, single point]"}
    ]}
  ]
}
